Laboratory results: the supplement of paper PMC13380429

What was measured:
Conditions in all cases: 72 h
Caco-2 [1] = assay: drug sensitivity score (DSS) for viability; higher = more toxic; extreme values may be limits of the assay
Vero E6 [2] = assay: as above
HepG2 [3] = assay: as above
U2OS [4] = assay: as above
Calu-3 [5] = assay: as above
Caco-2 [6] = assay: relative viability EC50 (midpoint between 100% and the lowest measured viability); higher = less toxic
Vero E6 [7] = assay: as above
HepG2 [8] = assay: as above
U2OS [9] = assay: as above
Calu-3 [10] = assay: as above
Caco-2 [11] = assay: cell viability relative to DMSO; higher = less toxic
Vero E6 [12] = assay: as above
HepG2 [13] = assay: as above
U2OS [14] = assay: as above
Calu-3 [15] = assay: as above

CC(C)(C)c1ccc(O)cc1 [4-tert-butylphenol]
Conditions	drug sensitivity score	relative viability EC50 [µM]
Caco-2 [1]	0	–
Caco-2 [6]	–	> 10
Calu-3 [5]	0	–
Calu-3 [10]	–	> 10
HepG2 [3]	0	–
HepG2 [8]	–	> 10
U2OS [4]	0	–
U2OS [9]	–	> 10
Vero E6 [2]	0	–
Vero E6 [7]	–	> 10

cell viability [%]
Conditions	Caco-2 [11]	Calu-3 [15]	HepG2 [13]	U2OS [14]	Vero E6 [12]
1 nM	100	107	91.7	102	98.1
10 nM	96.7	90.8	101	104	102
100 nM	105	98.2	90.6	98.4	95.9
1000 nM	97.9	96.9	99	95.6	98.8
10000 nM	89.3	102	99.4	99.2	99.4
